# Assay results taken from PubChem BioAssay AID2147 (National Center for Advancing Translational Sciences (NCATS), 2009).
# The campaign covered roughly 230,000 compounds. About 3,600 (1.6%) were called active. This list was built around the results that the source calls inconclusive (neither active nor inactive); the mix of calls is not that of the screen. The call rests on the fitted dose curve; in most records, active means well fitted inhibition curve with a large enough effect (not every such curve was filed as active); inconclusive means small, poorly fitted or top-dose-only effect, or another doubt; inactive means no such curve, though single readings can be large or run the other way. Where the call is inconclusive, the potency comes from a doubtful curve fit.
# Biological target: Lysine-specific demethylase 4E (Homo sapiens) (UniProt B2RXH2)
# Sequence of UniProt B2RXH2 (B2RXH2 whole entry, looked up, the tested form may be a part): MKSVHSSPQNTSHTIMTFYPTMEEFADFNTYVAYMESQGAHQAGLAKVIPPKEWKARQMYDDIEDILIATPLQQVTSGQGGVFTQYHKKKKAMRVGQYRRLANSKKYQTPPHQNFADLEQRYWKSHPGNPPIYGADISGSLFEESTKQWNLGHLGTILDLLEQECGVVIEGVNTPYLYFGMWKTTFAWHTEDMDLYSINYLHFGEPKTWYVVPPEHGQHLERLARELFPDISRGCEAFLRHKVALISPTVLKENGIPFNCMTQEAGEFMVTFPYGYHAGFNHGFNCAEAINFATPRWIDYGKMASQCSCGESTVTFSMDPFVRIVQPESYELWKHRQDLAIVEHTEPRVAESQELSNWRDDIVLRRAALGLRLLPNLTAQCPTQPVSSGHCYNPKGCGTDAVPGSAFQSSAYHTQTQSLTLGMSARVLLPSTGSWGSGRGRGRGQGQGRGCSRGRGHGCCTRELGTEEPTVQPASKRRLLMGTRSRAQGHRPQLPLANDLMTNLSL
# Assay: qHTS Assay for Inhibitors of Human Jumonji Domain Containing 2E (JMJD2E)
# Settings: JMJD2E catalytic domain, FDH-coupled NADH fluorescence (FDH is formaldehyde dehydrogenase); series mostly up to 57.1 µM
# Further: nearly all actives have a fitted effect of over 50% in size.
# Potency means the concentration at half of the fitted maximal effect; tags describe the fitted curve by direction and shape.
# 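Wherever activity change, negative = inhibition is given: 0% = wells with enzyme and -100% = buffer wells without enzyme.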
Compound,Potency,"activity change, negative = inhibition"
COc1ccc(-c2ccn(-c3cccc(F)n3)n2)cc1,"inconclusive: 25.1 µM [inhibitor, single point]",
COc1ccc(S(=O)(=O)N2CCOCC2)cc1NC(=O)Cc1ccccc1Cl,inactive,
Nc1nc(-c2c(Cl)cccc2Cl)no1,inactive,
O=c1c2ccccc2nc2n1C(CBr)CN2 (stereo unspecified),inactive,
O=C1NC(=S)S/C1=C\C=C\c1ccc([N+](=O)[O-])o1,active: 20 µM,
CC(=O)c1c(C)[nH]c(C2=NNC(=NC(C)(C)C)SC2)c1C,"inconclusive: 39.8 µM [inhibitor, single point]",
OC(COCC(F)(F)C(F)(F)C(F)(F)C(F)F)Cn1c2ccc(Cl)cc2c2cc(Cl)ccc21 (stereo unspecified),inactive,
CCCN(CCC)CCCNC(=O)c1cn(CCOC)c(=O)c2c1c1ccccc1n2C,"inconclusive: 22.4 µM [inhibitor, partial curve]",
CC(C)(C)S(=O)(=O)c1ccc2nc3c(n2c1)CCCC3,"inconclusive: 31.6 µM [inhibitor, partial curve]",
CC(=O)Nc1cccc(NC(=O)CSc2ccc(-c3ccccn3)nn2)c1,"inconclusive: 39.8 µM [inhibitor, single point]",
COc1ccc(C(CNC(=O)c2cc3ccccc3cc2OC)N2CCCC2)cc1 (stereo unspecified),"inconclusive: 35.5 µM [inhibitor, partial curve]",
N#Cc1c(-c2ccccc2)cc(-c2ccco2)c(C#N)c1N,"inconclusive: 15.8 µM [inhibitor, partial curve]",
COc1ccc(-c2cn3cccnc3n2)cc1NC(=O)C1CCCC1,"inconclusive: 15.8 µM [inhibitor, partial curve]",
COC(=O)CSc1nc2cc(OC)ccc2n1C,inactive,
CCN(CC)Cc1c(-c2ccccc2)[nH]c2ccc(C)cc2c1=O,"inconclusive: 35.5 µM [inhibitor, single point]",
CSc1ccc(CN2CCN(Cc3ccc([N+](=O)[O-])cc3)CC2)cc1,"inconclusive: 20 µM [inhibitor, partial curve, poor fit]",
CCCC(=O)Nc1nnc(-c2ccco2)s1,"inconclusive: 22.4 µM [inhibitor, partial curve]",
CC(C)CN1CCNC(=O)C1CC(=O)NCCc1cnn(-c2ccccc2)c1 (stereo unspecified),"inconclusive: 25.1 µM [inhibitor, partial curve]",
O=C(c1ccccc1)N1CCN(C(=O)C23CC4CC(CC(C4)C2)C3)CC1,"inconclusive: 39.8 µM [inhibitor, single point]",
O=C1c2ccccc2NC(c2cccc(Cl)c2)N1N=C1CCCCCC1 (stereo unspecified),"inconclusive: 31.6 µM [inhibitor, partial curve]",
CCOc1cc(NC(=O)C2CCCCC2)c(OCC)cc1NC(=O)c1ccco1,"inconclusive: 6.31 µM [inhibitor, single point]",
CC(C)NC(=O)c1ccc2c3n(nc2c1)-c1ccccc1CO3,"inconclusive: 28.2 µM [inhibitor, partial curve]",
CN1CCN(Cc2c(O)ccc3cc(-c4ccccn4)c(=O)oc23)CC1,"inconclusive: 28.2 µM [inhibitor, partial curve]",

Compound,Potency,"activity change, negative = inhibition"
Cc1ccc(/C=N/N2C(=O)C3C(C2=O)C2C=CC3C23CC3)o1 (stereo unspecified),inactive,
Cc1cc(S(=O)(=O)N2CCCC2)c(C)s1,inactive,
COc1ccc(S(=O)(=O)N(C)CC(=O)Nc2ccccc2C(F)(F)F)cc1,"inconclusive: 35.5 µM [inhibitor, single point]",
O=C1CCCc2c1cc(C(=O)Nc1ccc(Br)cn1)c(=O)n2-c1ccccc1,"inconclusive: 31.6 µM [inhibitor, single point]",
COc1ccc(NC2SC(=O)N(CC(=O)O)C2=O)cc1 (stereo unspecified),inactive,
CC(C)C1=NN2C(=N)CC(=O)N=C2S1,"inconclusive: 7.94 µM [inhibitor, full curve]",
Cc1ccc(C)c(NNC(N)=S)c1,"inconclusive: 39.8 µM [inhibitor, single point]",
C=CCNC(=S)/C(=C(\[O-])c1ccc(Cl)cc1)[n+]1ccccc1,"inconclusive: 39.8 µM [inhibitor, single point]",
COc1ccc(-c2nc(Cc3ccc(Cl)cc3)no2)cc1OC,"inconclusive: 31.6 µM [inhibitor, partial curve]",
CCCCc1cc(=O)oc2cc(OCC(=O)N(CC)CC)c(Cl)cc12,"inconclusive: 31.6 µM [inhibitor, single point]",
C=CCN1c2ccccc2[C@]23C[C@@H](C(=O)OC)N(S(=O)(=O)c4ccc5c(c4)OCCN5C)C2=NC(C(=O)OC)=C(C(=O)OC)[C@H]13,,inactive: 10.9% [at 11.4 µM]
CN(C(=O)c1ccccc1)c1ccc(OCC(=O)NC2CCS(=O)(=O)C2)cc1 (stereo unspecified),inactive,
O=C(Cc1c(O)c2ccccc2[nH]c1=O)NC1CCCCCC1,"inconclusive: 22.4 µM [inhibitor, partial curve]",
O=C(N/N=C\c1ccco1)Nc1cccc(Cl)c1,inactive,
c1nnc(-c2ccc3c(c2)OCO3)o1,"inconclusive: 35.5 µM [inhibitor, single point]",
CCn1cnc2cc(NCc3ccc(C)cc3)ccc21,"inconclusive: 11.2 µM [inhibitor, partial curve]",
O=C(NCc1cn2ccsc2n1)c1c(F)cccc1Cl,inactive,
NS(=O)(=O)c1ccc(CNC(=O)c2cc(-c3ccccc3)nc3ccccc23)cc1,"inconclusive: 31.6 µM [inhibitor, single point]",
COc1cc(-c2cc(C(=O)O)c3cc4c(cc3n2)OCCO4)cc(OC)c1OC,"inconclusive: 39.8 µM [inhibitor, single point]",
O=Cc1cn(-c2ccccc2)nc1-c1cc2c(ccc3ccccc32)oc1=O,"inconclusive: 3.16 µM [inhibitor, full curve]",
CC(C)NS(=O)(=O)c1ccc(OCC(=O)NCCC2=CCCCC2)cc1,inactive,
CCCCCCCCCCCCCCCC(O)C(N)CO (stereo unspecified),"inconclusive: 39.8 µM [inhibitor, single point]",
COc1ccccc1C(=O)NCC(=O)NNc1ncnc(N)c1[N+](=O)[O-],inactive,
